# Results as given in PMC5540273 (PLoS ONE, 2017).
# For some of these results: What follows is the remainder of the data, with few or none of the strong results. The entries are a selection whose mix differs from that of the whole data set.
# Experiments:
# Details in all cases: concentration: 1 μM,replicates: in singlicate; n = 1
# PHKG2 = system: PHKG2
# PIK3C2B = system: PIK3C2B
# PIK3C2G = system: PIK3C2G
# PIK3CA = system: PIK3CA
# PIK3CB = system: PIK3CB
# PIK3CD = system: PIK3CD
# PIK3CG = system: PIK3CG
# PIK4CB = system: T1, PIK4CB
# T1 construct: gene PI4KB
# PIKFYVE = system: PIKFYVE
# PIM1 = system: PIM1
# 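Further: KINOMEscan kinase panel screen.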
SMILES,%Inh (PHKG2) [%],%Inh (PIK3C2B) [%],%Inh (PIK3C2G) [%],%Inh (PIK3CA) [%],%Inh (PIK3CB) [%],%Inh (PIK3CD) [%],%Inh (PIK3CG) [%],%Inh (PIK4CB) [%],%Inh (PIKFYVE) [%],%Inh (PIM1) [%]
Cc1ccc(C)c(Oc2nccc(-c3c(-c4ccc(F)cc4)ncn3C3CCNCC3)n2)c1.O=C(O)C(F)(F)F.O=C(O)C(F)(F)F.O=C(O)C(F)(F)F [SB-284852],0,0,0,0,0,0,0,0,2,0
Cc1cc(C)cc(Oc2nccc(-c3c(-c4ccc(F)cc4)ncn3C3CCNCC3)n2)c1.O=C(O)C(F)(F)F.O=C(O)C(F)(F)F.O=C(O)C(F)(F)F [SB-284851],15,0,0,0,0,0,0,0,17,90.6
O=C1NC(=O)C(c2ccc(Cl)cc2)=C1Nc1ccc(O)c(Cl)c1 [SB-405367],0,5,6,0,0,0,35,17,3,0
O=C1NC(=O)c2c1c(-c1ccccc1)cc1[nH]c3ccc(O)cc3c21,9,14,34,9,1,7,42,23,34,55
O=C1NC(=O)C(c2ccccc2)=C1Nc1ccc(Cl)c(C(=O)O)c1 [SB-390532],0,0,0,0,0,25,0,8,29,11
O=C1NC(=O)C(c2ccccc2Cl)=C1Nc1ccccc1 [SB-376715],3,1,0,0,24,0,0,0,11,15
O=C1NC(=O)C(c2ccccc2)=C1Nc1cc(Cl)c(O)c(Cl)c1 [SB-390530],4,0,8,0,45,0,17,32,7,0
O=C1NC(=O)C(c2ccc(Cl)cc2)=C1Nc1cccc(O)c1 [SB-333613],13,4,24,39,18,57,20,39,20,49
O=C(O)c1ccc(-c2nc(-c3ccc(F)cc3)c(-c3ccncc3)[nH]2)cc1 [SB-202620],0,0,0,18,4,0,0,0,18,0
O=C1NC(=O)C(c2ccc(Cl)cc2)=C1Nc1cccc(C(=O)O)c1 [SB-360737],0,9,0,5,0,0,2,14,0,0
O=C1NC(=O)C(c2ccc(Cl)cc2)=C1Nc1ccccc1 [SB-317661],0,7,0,14,0,0,0,0,7,5
CSc1ccc(NC2=C(c3cccc(Cl)c3)C(=O)NC2=O)cc1 [SB-341528],0,0,13,0,0,0,0,6,4,3
COc1cccc(C2=C(Nc3ccc(SC)cc3)C(=O)NC2=O)c1 [SB-331032],26,0,0,9,8,0,0,0,1,12
CS(=O)(=O)c1ccccc1-c1nc(-c2ccc(F)cc2)c(-c2ccncc2)[nH]1 [SB-213663],0,0,0,0,0,0,28,7,58,0
O=C1NC(=O)C(c2ccccc2Cl)=C1Nc1cccc(C(=O)O)c1 [SB-390526],10,0,3,0,2,42,3,0,29,1
COc1ccc(C2=C(Nc3cccc(Cl)c3)C(=O)NC2=O)cc1 [SB-326892],1,21,100,14,0,100,21,0,0,0
